Laboratory results reported in patent US20250277006A1 (CYTIVA BIOPROCESS R AND D, published 2025).

How the values were obtained:
[1] = biological target: T1, Fab fragment of trastuzumab (comprising VH3); test: SPR; ligand immobilized on CM5; 1 g/L Fab
T1 construct: also called trastuzumab Fab fragment; Fab (VH3)

[2] = biological target: T1, Fab fragment of trastuzumab (comprising …); test: SPR; ligand immobilized on CM5; 1 g/L Fab; remark: listed apart in the source
[3] = biological target: T2, Fc fragment from adalimumab; test: SPR; ligand on CM5; max response at 800 nM, rounded to 50 Ru
T2 construct: also called adalimumab Fc fragment

[4] = biological target: T1, Fab fragment of trastuzumab (comprising …); test: as above

T1 sequence (chain, as listed by the source, chain 2 of 2, other chains not shown): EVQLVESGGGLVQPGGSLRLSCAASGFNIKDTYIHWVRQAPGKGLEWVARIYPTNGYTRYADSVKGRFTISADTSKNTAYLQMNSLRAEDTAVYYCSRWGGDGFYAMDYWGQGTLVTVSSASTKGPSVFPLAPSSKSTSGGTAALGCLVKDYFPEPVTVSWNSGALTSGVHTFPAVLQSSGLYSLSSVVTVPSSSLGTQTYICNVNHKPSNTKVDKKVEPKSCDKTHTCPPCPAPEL

B1: ZGE86 (designed binder)
chain: VDAKFDKEAQEAFYEILHLPNLTEEQRNAFIQGLKDDPSGSKAILAEAKKINDAQAPK
notes: also called GGI
- analyte binding Relative (RU) [1]: -18.4 RU
- Fab binding RU [2]: -18.4 RU

B2: ZGE90 (designed binder)
chain: VDAKFDKEAQEAFYEILHLPNLTEEQRNAFIQALKDDPSRSKAILAEAKKINDAQAPK
notes: also called ARI
- analyte binding Relative (RU) [1]: -0.9 RU
- Fab binding RU [2]: -0.9 RU

B3: ZGE91 (designed binder)
chain: VDAKFDKEAQEAFYEILHLPNLTEEQRNAFIQSLKDDPSGSKAILAEAKKVNDAQAPK
notes: also called SGV
- analyte binding Relative (RU) [1]: -7 RU
- Fab binding RU [2]: -7 RU
- Fab binding RU (% of SEQ ID NO: 58) [2]: 0%

B4: ZGE95 (designed binder)
chain: VDAKFDKEAQEAFYEILHLPNLTEEQRNAFIQALKDDPSGSKAILAEAKKRNDAQAPK
notes: also called AGR
- analyte binding Relative (RU) [1]: -0.6 RU
- Fab binding RU [2]: -0.6 RU

B5: ZGE96 (designed binder)
chain: VDAKFDKEAQEAFYEILHLPNLTEEQRNAFIQELKDDPSGSKAILAEAKKLNDAQAPK
notes: also called EGL
- analyte binding Relative (RU) [1]: -3.3 RU
- Fab binding RU [2]: -3.3 RU
- Fab binding RU (% of SEQ ID NO: 58) [2]: 0%

B6: ZGE0201 (modified version of protein A) (designed binder)
chain: IAAQHDKDQQAAFYEILHLPNLTEEQRNAFIQSLRDDPSQSLEILAEAKKLNDAQAPK
- max response (Ru) [3]: 1700 Ru
- max response (Ru) [4]: 150 Ru

B7: ZGE0211 (ZGE0201 scaffold with A/R/I at positions 33/40/51) (designed binder)
chain: IAAQHDKDQQAAFYEILHLPNLTEEQRNAFIQALRDDPSRSLEILAEAKKINDAQAPK
- max response (Ru) [3]: 2400 Ru

B8: ZGE0221 (ZGE0201 scaffold with S/G/V at positions 33/40/51) (designed binder)
chain: IAAQHDKDQQAAFYEILHLPNLTEEQRNAFIQSLRDDPSGSLEILAEAKKVNDAQAPK
- max response (Ru) [3]: 1400 Ru

B9: ZGE0231 (ZGE0201 scaffold with A/G/R at positions 33/40/51) (designed binder)
chain: IAAQHDKDQQAAFYEILHLPNLTEEQRNAFIQALRDDPSGSLEILAEAKKRNDAQAPK
- max response (Ru) [3]: 1500 Ru

B10: ZGE0202 (modified version of protein A) (designed binder)
chain: IAAQHDKEHQAAFYEILHLPNLTEDQRNAFIQSLRDDPSQSLEILGEAKKLNDAQAPK
- max response (Ru) [3]: 1800 Ru

B11: ZGE0232 (ZGE0202 scaffold with A/G/R at positions 33/40/51) (designed binder)
chain: IAAQHDKEHQAAFYEILHLPNLTEDQRNAFIQALRDDPSGSLEILGEAKKRNDAQAPK
- max response (Ru) [3]: 1400 Ru

B12: ZGE0212 (ZGE0202 scaffold with A/R/I at positions 33/40/51) (designed binder)
chain: IAAQHDKEHQAAFYEILHLPNLTEDQRNAFIQALRDDPSRSLEILGEAKKINDAQAPK
- max response (Ru) [3]: 2400 Ru

B13: ZGE0222 (ZGE0202 scaffold with S/G/V at positions 33/40/51) (designed binder)
chain: IAAQHDKEHQAAFYEILHLPNLTEDQRNAFIQSLRDDPSGSLEILGEAKKVNDAQAPK
- max response (Ru) [3]: 2000 Ru

B14: ZGE0203 (modified version of protein A) (designed binder)
chain: VDNKFNKEQQNAFTEILHLPNLTEEQRNAFIQSLKDDPSQTKEILAEAKKLNDAQAPK
- max response (Ru) [3]: 1250 Ru
- max response (Ru) [4]: 100 Ru

B15: ZGE0213 (ZGE0203 scaffold with A/R/I at positions 33/40/51) (designed binder)
chain: VDNKFNKEQQNAFTEILHLPNLTEEQRNAFIQALKDDPSRTKEILAEAKKINDAQAPK
- max response (Ru) [3]: 1650 Ru

B16: ZGE0223 (ZGE0203 scaffold with S/G/V at positions 33/40/51) (designed binder)
chain: VDNKFNKEQQNAFTEILHLPNLTEEQRNAFIQSLKDDPSGTKEILAEAKKVNDAQAPK
- max response (Ru) [3]: 650 Ru

B17: ZGE0233 (ZGE0203 scaffold with A/G/R at positions 33/40/51) (designed binder)
chain: VDNKFNKEQQNAFTEILHLPNLTEEQRNAFIQALKDDPSGTKEILAEAKKRNDAQAPK
- max response (Ru) [3]: 700 Ru
